Measured values as given in publication PMC9911399, “Two distinct binding modes provide the RNA-binding protein RbFox with extraordinary sequence specificity”.
Residue numbers refer to the chain shown, from its start. This is one part of the list.

T1: RBFOX1 RRM RbFoxmut (Fox-RRM*) (Homo sapiens, UniProt Q9NWB1 109-208, R118D;E147R;N151S;E152T)
T1 sequence: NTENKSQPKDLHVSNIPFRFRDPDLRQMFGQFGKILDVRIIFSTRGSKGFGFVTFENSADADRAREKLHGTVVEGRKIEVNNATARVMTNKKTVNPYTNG

B1: AUUCUCU (DNA:RNA)
RNA: GGGAGACCGGAAUUCAGAUUGUCCAUUCUCUUUAAAUCCCGUCGUAGCCACCA
DNA 1: CAATCTGAATTCCGGTCTCCC
DNA 2: TGGTGGCTACGACGGGATT
B2: UUAAUGA (DNA:RNA)
RNA: B1 RNA with A25U, U27A, C28A, C30G, U31A
DNA 1: CAATCTGAATTCCGGTCTCCC
DNA 2: TGGTGGCTACGACGGGATT
B3: AGGGUGA (DNA:RNA)
RNA: B1 RNA with U26G, U27G, C28G, C30G, U31A
DNA 1: CAATCTGAATTCCGGTCTCCC
DNA 2: TGGTGGCTACGACGGGATT
B4: GACAUCG (DNA:RNA)
RNA: B1 RNA with A25G, U26A, U27C, C28A, U31G
DNA 1: CAATCTGAATTCCGGTCTCCC
DNA 2: TGGTGGCTACGACGGGATT
B5: UAAGCCA (DNA:RNA)
RNA: B1 RNA with A25U, U26A, U27A, C28G, U29C, U31A
DNA 1: CAATCTGAATTCCGGTCTCCC
DNA 2: TGGTGGCTACGACGGGATT
B6: UAAUCCA (DNA:RNA)
RNA: B1 RNA with A25U, U26A, U27A, C28U, U29C, U31A
DNA 1: CAATCTGAATTCCGGTCTCCC
DNA 2: TGGTGGCTACGACGGGATT
B7: AGGUCGC (DNA:RNA)
RNA: B1 RNA with U26G, U27G, C28U, U29C, C30G, U31C
DNA 1: CAATCTGAATTCCGGTCTCCC
DNA 2: TGGTGGCTACGACGGGATT
B8: AUAUUAG (DNA:RNA)
RNA: B1 RNA with U27A, C28U, C30A, U31G
DNA 1: CAATCTGAATTCCGGTCTCCC
DNA 2: TGGTGGCTACGACGGGATT
B9: CUCACGC (DNA:RNA)
RNA: B1 RNA with A25C, U27C, C28A, U29C, C30G, U31C
DNA 1: CAATCTGAATTCCGGTCTCCC
DNA 2: TGGTGGCTACGACGGGATT
B10: GUAGAUU (DNA:RNA)
RNA: B1 RNA with A25G, U27A, C28G, U29A, C30U
DNA 1: CAATCTGAATTCCGGTCTCCC
DNA 2: TGGTGGCTACGACGGGATT
B11: AGAUACA (DNA:RNA)
RNA: B1 RNA with U26G, U27A, C28U, U29A, U31A
DNA 1: CAATCTGAATTCCGGTCTCCC
DNA 2: TGGTGGCTACGACGGGATT
B12: CAUUGAU (DNA:RNA)
RNA: B1 RNA with A25C, U26A, C28U, U29G, C30A
DNA 1: CAATCTGAATTCCGGTCTCCC
DNA 2: TGGTGGCTACGACGGGATT
B13: GCAACGC (DNA:RNA)
RNA: GGGAGACCGGAAUUCAGAUUGUCCGCAACGCUUAAAUCCCGUCGUAGCCACCA
DNA 1: CAATCTGAATTCCGGTCTCCC
DNA 2: TGGTGGCTACGACGGGATT
B14: CGGCUUU (DNA:RNA)
RNA: B1 RNA with A25C, U26G, U27G, C30U
DNA 1: CAATCTGAATTCCGGTCTCCC
DNA 2: TGGTGGCTACGACGGGATT
B15: GACAAAA (DNA:RNA)
RNA: B13 RNA with C26A, A27C, C29A, G30A, C31A
DNA 1: CAATCTGAATTCCGGTCTCCC
DNA 2: TGGTGGCTACGACGGGATT
B16: GAAGCUC (DNA:RNA)
RNA: B13 RNA with C26A, A28G, G30U
DNA 1: CAATCTGAATTCCGGTCTCCC
DNA 2: TGGTGGCTACGACGGGATT
B17: CAUAACU (DNA:RNA)
RNA: B1 RNA with A25C, U26A, C28A, U29A
DNA 1: CAATCTGAATTCCGGTCTCCC
DNA 2: TGGTGGCTACGACGGGATT
B18: GGAUAAC (DNA:RNA)
RNA: B13 RNA with C26G, A28U, C29A, G30A
DNA 1: CAATCTGAATTCCGGTCTCCC
DNA 2: TGGTGGCTACGACGGGATT
B19: AGUUACU (DNA:RNA)
RNA: B1 RNA with U26G, C28U, U29A
DNA 1: CAATCTGAATTCCGGTCTCCC
DNA 2: TGGTGGCTACGACGGGATT
B20: CCCGGGA (DNA:RNA)
RNA: B13 RNA with G25C, A27C, A28G, C29G, C31A
DNA 1: CAATCTGAATTCCGGTCTCCC
DNA 2: TGGTGGCTACGACGGGATT
B21: UACCUUA (DNA:RNA)
RNA: B1 RNA with A25U, U26A, U27C, C30U, U31A
DNA 1: CAATCTGAATTCCGGTCTCCC
DNA 2: TGGTGGCTACGACGGGATT
B22: CACGCCC (DNA:RNA)
RNA: B13 RNA with G25C, C26A, A27C, A28G, G30C
DNA 1: CAATCTGAATTCCGGTCTCCC
DNA 2: TGGTGGCTACGACGGGATT
B23: AGGCGAA (DNA:RNA)
RNA: B1 RNA with U26G, U27G, U29G, C30A, U31A
DNA 1: CAATCTGAATTCCGGTCTCCC
DNA 2: TGGTGGCTACGACGGGATT
B24: CCAAUGG (DNA:RNA)
RNA: B13 RNA with G25C, C29U, C31G
DNA 1: CAATCTGAATTCCGGTCTCCC
DNA 2: TGGTGGCTACGACGGGATT
B25: CGAACAC (DNA:RNA)
RNA: B13 RNA with G25C, C26G, G30A
DNA 1: CAATCTGAATTCCGGTCTCCC
DNA 2: TGGTGGCTACGACGGGATT
B26: UACCGCG (DNA:RNA)
RNA: B1 RNA with A25U, U26A, U27C, U29G, U31G
DNA 1: CAATCTGAATTCCGGTCTCCC
DNA 2: TGGTGGCTACGACGGGATT
B27: AAAGGUU (DNA:RNA)
RNA: B1 RNA with U26A, U27A, C28G, U29G, C30U
DNA 1: CAATCTGAATTCCGGTCTCCC
DNA 2: TGGTGGCTACGACGGGATT
B28: GUGCCUA (DNA:RNA)
RNA: B1 RNA with A25G, U27G, U29C, C30U, U31A
DNA 1: CAATCTGAATTCCGGTCTCCC
DNA 2: TGGTGGCTACGACGGGATT
B29: CACCCAC (DNA:RNA)
RNA: B13 RNA with G25C, C26A, A27C, A28C, G30A
DNA 1: CAATCTGAATTCCGGTCTCCC
DNA 2: TGGTGGCTACGACGGGATT
B30: GUUGCUU (DNA:RNA)
RNA: B1 RNA with A25G, C28G, U29C, C30U
DNA 1: CAATCTGAATTCCGGTCTCCC
DNA 2: TGGTGGCTACGACGGGATT
B31: CAAUAAA (DNA:RNA)
RNA: B13 RNA with G25C, C26A, A28U, C29A, G30A, C31A
DNA 1: CAATCTGAATTCCGGTCTCCC
DNA 2: TGGTGGCTACGACGGGATT

The binders below were run against T1, RBFOX1 RRM RbFoxmut (Fox-RRM*) (assay: EMSA; HiTS-Eq, 1 nM pool, 10 min; buffer printed only for the single-RNA assays: 10 mM Tris pH 7.5, 150 mM NaCl, 3.4 mM EDTA, 0.001% NP-40, 30 C). Conditions: tags: His6 N-terminal (pET28a); label: 5' 32P.
How it was run: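 Purified RbFox RRM, wild type or mutant, was incubated for 10 min in 50 µL with 1 nM of a 5′-radiolabelled RNA pool carrying 7 randomized nucleotides, whose flanks were annealed to DNA oligonucleotides, over a series of increasing protein concentrations. Unbound RNA was resolved on 8% native PAGE, cut out, reverse-transcribed, barcoded by PCR and sequenced on an Illumina HiSeq 2500. Relative association constants were derived from changes in read counts for each RNA species versus the control reaction and normalised to the cognate motif.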
For B1, the binding signal was 0.0957 KA relative to UGCAUGU. For B2, the binding signal was 0.0717 KA relative to UGCAUGU. With B3 the binding signal was 0.124 KA relative to UGCAUGU. For B4, the binding signal was 0.0779 KA relative to UGCAUGU. In the case of B5, the binding signal is reported as 0.0999 KA relative to UGCAUGU. For B6, the binding signal was 0.0724 KA relative to UGCAUGU. In the case of B7, the binding signal is reported as 0.0824 KA relative to UGCAUGU. For B8, the binding signal was 0.127 KA relative to UGCAUGU. With B9 the binding signal was 0.0906 KA relative to UGCAUGU. For B10, the binding signal was 0.138 KA relative to UGCAUGU. For B11, the binding signal was 0.0889 KA relative to UGCAUGU. B12 was tested, and the binding signal was 0.126 KA relative to UGCAUGU. B13 was tested, and the binding signal was 0.0568 KA relative to UGCAUGU. For B14, the binding signal was 0.0746 KA relative to UGCAUGU. In the case of B15, the binding signal is reported as 0.057 KA relative to UGCAUGU. B16 was tested, and the binding signal was 0.0484 KA relative to UGCAUGU. With B17 the binding signal was 0.0993 KA relative to UGCAUGU. B18 was tested, and the binding signal was 0.0671 KA relative to UGCAUGU. In the case of B19, the binding signal is reported as 0.0898 KA relative to UGCAUGU. In the case of B20, the binding signal is reported as 0.0476 KA relative to UGCAUGU. For B21, the binding signal was 0.163 KA relative to UGCAUGU. B22 was tested, and the binding signal was 0.0943 KA relative to UGCAUGU. With B23 the binding signal was 0.0877 KA relative to UGCAUGU. For B24, the binding signal was 0.0834 KA relative to UGCAUGU. With B25 the binding signal was 0.075 KA relative to UGCAUGU. B26 was tested, and the binding signal was 0.083 KA relative to UGCAUGU. For B27, the binding signal was 0.0771 KA relative to UGCAUGU. B28 was tested, and the binding signal was 0.108 KA relative to UGCAUGU. B29 was tested, and the binding signal was 0.0866 KA relative to UGCAUGU. For B30, the binding signal was 0.0974 KA relative to UGCAUGU. In the case of B31, the binding signal is reported as 0.119 KA relative to UGCAUGU.
